According to PMC11910115, “UXT oligomerization is essential for its role as an autophagy adaptor” (iScience, 2025):

Molecular target: the molecule itself
Assay: SEC; purified, refolded recombinant 6×His-sfGFP-UXT on a size-exclusion column

B1: 6×His-sfGFP-UXT (natural protein)
chain: not shown
notes: UXT, human; expected molecular weight of the tagged protein 46.9 kDa; Plasmid pRSF-6×His-sfGFP-UXT; also called recombinant 6×His-sfGFP-UXT; purified UXT; not shown: 6×His, N-terminal, kept; superfolder GFP, N-terminal, kept
B1: binds.
